PubChem BioAssay AID1963576 (National Center for Advancing Translational Sciences (NCATS), 2024)
Hit rate of the full screen: of about 46,000 compounds, about 60 (0.1%) were called active. Not shown: some 3% with an inconclusive outcome. Calls come from the whole dose curve; as a rule, active = well fitted inhibition curve with a large enough effect; inconclusive = small, poorly fitted or top-dose-only effect; inactive = no such curve, though single readings can be large or run the other way. This is one part of the list.

Experiment: Primary qHTS assay for Inhibitors of ovarian cancer metastasis using an organotypic tumor microenvironment (TME) model.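 For Potency: count of GFP cancer cells still attached after washing and fixation.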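 For activity change, negative = inhibition: plate controls were DMSO wells for no effect and tomatine positive control wells for full effect.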 Note: nearly all actives have a fitted effect of over 65% in size.
Conditions: SKOV3ip1-GFP adhesion/invasion on 3D omental model, fluorescence; series mostly up to 45.8 µM; activity change, negative = inhibition: at the top concentration
In short: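 A 3D layer of primary human omental fibroblasts, mesothelial cells, fibronectin and collagen I, grown 48 hr, received SKOV3ip1-GFP cells in serum-free medium plus compounds at 0.36-46 umol/L. After 2 hr RT and 16 hr 37 C, fixed adherent GFP cells were counted; normalized to DMSO and tomatine.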
Potency is the fitted concentration of half-maximal effect.

Compound	outcome	activity change, negative = inhibition	Potency
Cn1c2ccccc2c2c(C(=O)N3CCN(c4ccc(F)cc4)CC3)cn(C3CCCCC3)c(=O)c21	inactive	–	–
O=C1Nc2ccc(S(=O)(=O)Nc3ccccc3O)c3cccc1c23	–	inactive: 3.64%	–
COc1cc(C(=O)Nc2ccc3oc(-c4ccccc4)nc3c2)cc(OC)c1OC	–	inactive: -3.12%	–
COc1cc(NC(=O)Cn2ncc3c([nH]c4ccc(C)cc43)c2=O)cc(OC)c1OC	–	inactive: -5.66%	–
c1ccc2c(-c3cnn4cc(-c5ccc(N6CCNCC6)cc5)cnc34)ccnc2c1	–	–	active: 23.5 µM
CC(C)(Oc1ccc(C2CC2(Cl)Cl)cc1)C(=O)O (stereo unspecified)	–	inactive: 3.54% [at 92.2 µM]	–
CCOc1ccc(C2Nc3ccccc3-c3nnc(SCc4ccccc4)nc3O2)cc1OC (stereo unspecified)	–	inactive: 4.08%	–
COc1ccc(-c2noc(CSCC(=O)Nc3cccc(C(F)(F)F)c3)n2)cc1OC	–	inactive: -13.9%	–
Cc1ccc(S(=O)(=O)CC(=O)Nc2sc3c(c2C#N)CCCCC3)cc1	–	inactive: 3.1%	–
CC(C)CCN(Cc1ccco1)C(=O)c1cc2c(Cl)nc3ccccc3c2s1	inactive	–	–
Cc1ccccc1CNC(=O)C1CCCN(S(=O)(=O)N(C)c2ccc(F)cc2)C1 (stereo unspecified)	–	inactive: 12.1%	–
CCOc1ccccc1NC(=O)Nc1nnc(N2CCCCCC2)s1	–	inactive: 1.6%	–
CCC(=O)N1CCc2cc(Br)cc(S(=O)(=O)CCC(=O)NCCc3ccc(Cl)cc3)c21	–	inactive: 1.98%	–
CCc1cccc(NC(=O)c2ccc(CN3C(=O)C(C)=C(c4ccc(OC)cc4)S3(=O)=O)cc2)c1	–	inactive: -3.49%	–
CCCOc1ccc(-c2nn(-c3ccccc3)cc2C2NC(=O)NC(C)=C2C(=O)OC)cc1C (stereo unspecified)	–	inactive: -3.94%	–
CCOc1ccc(N2C(=O)N(Cc3ccc(C)cc3C)c3ccccc3S2(=O)=O)cc1	–	inactive: -6.87%	–
COc1ccccc1N1CCN(CC(O)COc2cc(C)cc(C)c2)CC1 (stereo unspecified)	–	inactive: -2.39%	–
Cc1ccc(-c2cc(C(=O)NCCc3ccccc3)c3c(-c4ccc(C)cc4)[nH]nc3n2)cc1	–	inactive: -15%	–
CCn1cc(C(=O)N2CCN(c3cc(C)ccc3C)CC2)c(=O)c2cc(S(=O)(=O)N(C)C3CCCCC3)ccc21	–	inactive: 19.4%	–
Cc1cccc(Nc2c3c(nc4nncn24)CCC3)c1	–	inactive: -4.41%	–
COc1ccc(-c2ccc3c(N)c(C(=O)Nc4cc(F)ccc4C)sc3n2)cc1	–	inactive: 3.16%	–
O=c1c2ccccc2n(Cc2cccc(F)c2)c(=O)n1Cc1ccccc1Cl	–	inactive: -8.71%	–
NC(=O)[C@@H](CCC(F)(F)F)N(Cc1ccc(-c2ncon2)cc1F)S(=O)(=O)c1ccc(Cl)cc1	–	inactive: -16.6%	–
COc1cccc(CNC(=O)CCCN2C(=O)CSc3c2c(C)nn3-c2ccccc2)c1	inactive	–	–

Compound	outcome	activity change, negative = inhibition	Potency
Cc1cccc(NS(=O)(=O)c2ccc3c(c2)CCN3C(=O)CCC(=O)O)c1C	–	inactive: 3.45%	–
CCN(c1ccccc1)S(=O)(=O)c1ccc(NC(=O)c2cc(=O)c3cc(C)c(C)cc3o2)cc1	–	inactive: -0.587%	–
Cc1ccc(NC(=O)CSc2nc3c([nH]c4ccccc43)c(=O)n2-c2ccccc2)c(C)c1	–	inactive: -7.53%	–
CCCCN1CCc2nc(N3CCN(c4ncccn4)CC3)ncc2C1	–	inactive: -0.0034%	–
COc1ccccc1N1CCN(C(=O)Cn2c(=O)nc(-c3ccccc3)c3cc(Cl)ccc32)CC1	inactive	–	–
Cc1nc2c(-c3ccc(F)cc3)c(C)nn2c(C)c1CCC(=O)NCc1ccc(Cl)cc1	inactive	–	–
CCOc1ccc(NC(=O)c2ccc(-c3ccccc3)s2)cc1	–	inactive: -0.471%	–
CCOc1ccc(C(=O)Nc2ccc3nc(SCc4ccccc4)sc3c2)cc1	–	inactive: 9.68%	–
COc1ccc(S(=O)(=O)Nc2cc3c(cc2NCc2ccccc2)n(C)c(=O)n3C)cc1OC	–	inactive: -5.05%	–
COc1cccc(-n2cc(C(=O)NCc3cccc(Cl)c3)c3ccccc3c2=O)c1	–	inactive: 6.05%	–
CCOC(=O)Cn1c(=O)n(C2CCCCC2)c2nc(-c3ccc(Cl)cc3)nc(C(N)=O)c21	inactive	–	–
Cc1cc(-c2nc3ncccc3o2)ccc1NC(=O)c1ccc(Br)cc1	–	inactive: -23.1%	–
Cc1cc(C)c(NC(=O)c2cc3c(=O)n4ccccc4nc3n2C)c(C)c1	–	inactive: 9.44%	–
Cc1ccc2c(=O)cc(CSc3nnc(-c4ccccc4)n3C)[nH]c2c1C	–	inactive: 10.1%	–
CC(C)c1ccc(S(=O)(=O)Nc2ccc3oc4c(c3c2)C(=O)CC(C)(C)C4)cc1	–	inactive: 7.71%	–
COc1ccc(OCC(=O)NCC(c2ccc(Cl)cc2)N2CCCCC2)cc1 (stereo unspecified)	–	inactive: 1.63%	–
COc1ccc(NC(=O)c2c(-c3ccccc3)c(-c3ccccc3)nn(C)c2=O)c(OC)c1	inactive	–	–
CC(=O)N1c2ccccc2C(=O)C1N1CCN(c2ccccc2)CC1 (stereo unspecified)	–	inactive: -8.59%	–
CSc1ccc(CNC(=O)c2ccccc2NC(=O)c2nsc3ccccc23)cc1	–	inactive: 2.48%	–
CC(=O)Nc1ccc(S(=O)(=O)N2CCC(Oc3ccc(-n4cnnn4)cc3)CC2)cc1	–	inactive: -3.89%	–
COc1cc(OC)cc(-n2nnc(-c3nc(-c4ccccc4Cl)no3)c2N)c1	–	inactive: -0.159%	–
CC(=O)N1CCc2c(sc3c2c(=O)n(-c2ccccc2C)c(=O)n3Cc2cccc(F)c2)C1	–	inactive: 0.319%	–
CC1CCN(C(=O)c2cnn(-c3cccc(Cl)c3)c2C2CCN(C(=O)OC(C)(C)C)CC2)CC1	–	inactive: 0.852%	–
COCCCNC(=O)c1sc2nc(C)c(C(=O)Nc3ccc(C)cc3C)c(-c3ccc(Cl)cc3)c2c1N	inactive	–	–

Compound	outcome	activity change, negative = inhibition	Potency
Cc1c(Cl)cccc1NC(=O)c1ccc(C(=O)Nc2cccc(Cl)c2C)cc1	–	inactive: -1.67%	–
COC(=O)c1scc(-c2ccccc2)c1S(=O)(=O)Nc1cccc(C)c1C	–	inactive: -4.91%	–
CCCCOc1ccc(C(=O)N(Cc2ccc(C(C)C)cc2)C2CCS(=O)(=O)C2)cc1 (stereo unspecified)	–	inactive: -18.8%	–
O=C(c1ccccc1Cl)n1nc(-c2cccnc2)nc1NCc1ccc(F)cc1	–	inactive: -1.88%	–
Cc1c(CNC(C)CCc2ccccc2)c(C(=O)O)c(C)n1Cc1ccc(F)cc1Cl (stereo unspecified)	–	inactive: -7.21%	–
O=C(Nc1ccccc1-c1nc2ccccc2s1)c1cc(Cl)cc(Cl)c1	–	inactive: -8.38%	–
Cc1ccccc1Nc1c(-c2ccc(N3CCOCC3)cc2)nc2ncccn12	–	inactive: -4.84%	–
CN1CC(=O)NC1=NC(=O)Nc1cccc(Cl)c1	–	inactive: 1.79%	–
COc1ccc(CN2COc3ccc4c(oc(=O)c5ccccc54)c3C2)cc1OC	–	inactive: 4%	–
COc1ccc(C2=NN(CC(=O)NCCCN(C)c3ccccc3)C(=O)CC2)cc1	inactive	–	–
COC(=O)c1cc2sc(C)cc2n1Cc1ccc(Br)cc1F	–	inactive: -7.76%	–
CCOC(=O)c1ccc(NC(=O)CCc2c(C)nc3nc[nH]n3c2=O)cc1	inactive	–	–
Cc1cc(C)c(NC(=O)CCc2c(C)nc3c(c(C)nn3C(C)(C)C)c2C)c(C)c1	–	inactive: -5.67%	–
COc1ccc(N2CCN(C3=NS(=O)(=O)C(c4cccc(Br)c4)=C3C)CC2)cc1	–	inactive: -0.741%	–
CCOC(=O)c1cccc(NC(=O)C2CCN(S(=O)(=O)c3cn(C)cn3)CC2)c1	–	inactive: -8.75%	–
Cc1ccc(C)c(NS(=O)(=O)c2cc3c(cc2Cl)NC(=O)CO3)c1	–	inactive: -1.48%	–
CCOC(=O)c1ccc(NC(=O)CC2C(=O)N(c3ccc(F)cc3)C(=O)N2Cc2ccc3c(c2)OCO3)cc1 (stereo unspecified)	–	inactive: -7.84%	–
COc1ccc(NC(=O)c2nc3nc(C)cc(C(F)F)n3n2)c(C)c1	inactive	–	–
COc1ccc(C=Cc2cc(OC)c(OC)c(OC)c2)cc1O	–	inactive: 27.1%	–
COc1ccc(C2CC(=O)Nc3c2c(=O)[nH]c2nc4ccccc4n32)cc1OC (stereo unspecified)	inactive	–	–
Cc1ccc2oc3c(c(=O)c2c1)C(c1ccc(F)cc1)N(c1nc(C)c(C)s1)C3=O (stereo unspecified)	inactive	–	–
COCCNC(=O)C(=O)NCC(c1cccnc1)N1CCN(c2ccccc2F)CC1 (stereo unspecified)	–	inactive: -3.1%	–
COc1ccccc1Nc1nc2ccc(Cl)cc2nc1-n1nc(C)cc1C	–	inactive: -3.73%	–
COc1cc2ccccc2cc1C(=O)Nc1ccc2oc(-c3cccc(Cl)c3Cl)nc2c1	–	inactive: -2.43%	–

Compound	outcome	activity change, negative = inhibition	Potency
COCCCNc1ncnc2c1cnn2-c1ccc(F)cc1	–	inactive: -9.33%	–
CCc1ccc(NC(=O)N2CC(C)Oc3ccc(C)cc32)cc1 (stereo unspecified)	–	inactive: -3.25%	–
Nc1nc(Nc2ccc(S(N)(=O)=O)cc2)nn1C(=O)c1c(F)cccc1F	–	inactive: 23.6%	–
CCc1ccc(S(=O)(=O)c2nnn3c2nc(N2CCCC2)c2sccc23)cc1	–	inactive: -0.949%	–
COc1ccc(-n2cc(-c3ccccc3)nc2SCC(=O)Nc2ccccc2)cc1Cl	–	inactive: -1.01%	–
CCCn1c(NCc2ccccc2C)nc2ccccc21	–	inactive: 0.338%	–
COc1ccc(-c2cc(C(F)(F)F)n3nc(C(=O)Nc4cccc(Cl)c4C)cc3n2)cc1	–	inactive: 1.54%	–
CCOC(=O)c1ccc(NC(=O)Cn2cnc(S(=O)(=O)N3CCCC3)c2)cc1	inactive	–	–
Cc1ccccc1C1C=C(c2ccc(Cl)cc2)Nc2nnnn21 (stereo unspecified)	–	inactive: 9.53%	–
COc1ccc(NC(=O)COCc2cc(-c3cccs3)on2)cc1	–	inactive: -0.164%	–
Cc1nn(-c2ccc(N3CCCCC3)nn2)c(C)c1CCC(=O)NCc1ccccc1F	–	inactive: -13.3%	–
COc1cc(C2c3c(oc4ccccc4c3=O)C(=O)N2c2nnc(C(C)C)s2)cc(OC)c1OC (stereo unspecified)	–	inactive: 1.91%	–
CCOc1ccccc1CNC(=O)c1cc(-c2ccc(OC)cc2)nc2ccc(C(C)C)cc12	–	inactive: -6.5%	–
O=C(c1ccc2c(c1)N(Cc1ccccc1)C(=O)c1ccccc1S2(=O)=O)N1CCN(c2ccccn2)CC1	–	inactive: -1.42%	–
CCSc1ncc(Cl)c(C(=O)Nc2c(C(=O)Nc3ccc(Cl)cc3)oc3ccccc23)n1	–	inactive: 6.98%	–
CCOc1ccc(OCC)c(NC(=O)CCc2c(C)nc3c(c2C)c(=O)n(C)c(=O)n3C)c1	–	inactive: -3.82%	–
COC(=O)c1ccccc1NC(=O)Cn1c(=O)n(-c2ccc(Cl)cc2)c(=O)c2c(C)c(C)sc21	–	inactive: -2.27%	–
Cc1ccc(Cn2ccn(Cc3ccccc3C)c(=O)c2=O)cc1	–	inactive: 4.94%	–
COc1ccc(/C=C/c2noc(-c3ccccc3O)n2)cc1OC	inactive	–	–
CCOC(=O)c1cccc(NS(=O)(=O)c2cn(C)c(C)n2)c1	–	inactive: -3.94%	–
Cc1ccc(CN2CCN(CC(=O)NCc3ccccc3Cl)C2=O)cc1	–	inactive: -13.8%	–
COc1cc(NS(=O)(=O)c2ccc3c(c2)CCCN3C(C)=O)cc(OC)c1OC	–	inactive: -7.84%	–
Cc1cc(C)cc(-n2nnc(-c3nc(-c4ccccc4F)no3)c2C)c1	–	inactive: 9.09%	–
Cc1cc(C)n(-c2nc3ccccc3nc2Nc2cc(C(=O)O)ccc2C)n1	–	inactive: -3.43%	–
